According to the supplement of paper PMC11417369:
± gives the standard deviation of the averaged measurements. This is one part of the list.

Each sequence was assayed on PfAP2-I AP2 domain 3 (GST-tagged) (assay: gcPBM binding intensity (ln(normalized median fluorescence intensity)); higher = stronger DNA binding).
In short: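 The highest Masliner-normalised natural-log median intensity across replicate spots of either probe orientation is reported as binding intensity. GST-tagged P. falciparum DNA-binding domains expressed in E. coli were applied for 1 h to an Agilent 4 × 180k array of primer-extended double-stranded 36-bp intergenic genomic probes plus negative controls, and bound protein was detected with Alexa488 anti-GST antibody and scanned at 488 nm.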

Sequence	gcPBM binding intensity (ln)
AAAAGAATAATAATTTATGTATATTAATTAAAGAAT [XGTACX_negctrl_site402]	7.46 ± 0.54
TTATATATATGTGTATGTACATATATATATATATAT [XGTACX_site1141]	9.38 ± 0.54
TATCATATATTATATGCACACATGTTTTTCAAGAAT [CACACA_site1892]	9.335 ± 0.078
TATTTATTATTATGTACACACTATATTAAAACATAA [CACACA_site4549]	8.175 ± 0.064
TATGTGAATCCTAAGTGTACACATCTTACATATATA [XGTACX_site2506]	8.15 ± 0.4
AGTATACGCAGACACACACACACATATATATATATA [CACACA_site1735]	9.54 ± 0.52
ATAAGATGATTAATTACACACTTTATAGGATATTTA [CACACA_site1711]	7.57 ± 0.55
GGTATATGCATAAAGAGTACGTAACTTCTTTTTGTT [XGTACX_site6344]	8.22 ± 0.59
TTTTTTTTTTTTTCTTCACACACAGTACTACTATTT [CACACA_site8759]	8.14 ± 0.77
TTAGCTTTTTTTTAAACATGCAACTACTTGATCCAC [TGCATGCA_site1017]	7.84 ± 0.45
CCAAAAAATATATGTAGTACTACATTATTAAATATG [XGTACX_site5128]	7.95 ± 0.36
ATTAAGTACTAAAAAGTGCAGTTCGGTACTGTGCTT [GTGCAC_site9755]	9.23 ± 0.19
AATAAAAAACATGAAAGTACTTTAAAAAAGGTAATA [XGTACX_site1897]	8.09 ± 0.66
AAGTACATACATAAAACACACACATATATATATATA [CACACA_site8541]	9.38 ± 0.74
AATATATAAATCAATAGTACATATATATATATATAT [XGTACX_site3898]	9.21 ± 0.73
ATGTATAAACAAAAGGGTACATATATATATATATAT [XGTACX_site2087]	9.24 ± 0.17
AGAAAAATTACAAAATGTACATAATGTGTTATTAAT [XGTACX_site7877]	7.67 ± 0.61
TTATATAAAGAATGTACACACAGAAATGCACCCACA [CACACA_site2282]	11 ± 0.57
ATTAAATATGAGGGAACACACACATGATATATAAAT [CACACA_site8755]	7.98 ± 0.67
TTATATTTATAAAGGTGTACCTTAAAATGATTTTAC [XGTACX_site3774]	7.76 ± 0.29
ATATATTATATTAATTGTACATAAAAAAGAGAAAAA [XGTACX_site3366]	7.94 ± 0.52
AAAATTAAATAAAAATGTACAGAAATATTATATGAA [XGTACX_site5695]	7.68 ± 0.46
ATTTTATTTTTGTGCACACTGATAAATTGAAAAGAG [CACACA_site2948]	10.8 ± 0.18
TATTACACATATTATGTGCACATATATAATCAATAT	9.87 ± 0.46
TATATATATATAATATGTACATATATTAAGCATTTT [XGTACX_site4470]	8.985 ± 0.064
